Data reported in the RNAGym collection of RNA variant scans (doi:10.7554/elife.90254).
Read counts are not given, so values of variants with three or more changes are uncertain.

B1: LINE1-mini (parent)
chain: GGCAGAGCUCAACACAGCGUGGCAAAGUGGCUGUGGCUAGACUGCC

Variants of: B1
Assay: self-cleavage, relative activity (ratio to wild type); higher = more cleavage; in vitro, sequencing; the parent is a self-cleaving ribozyme

| Variant | self-cleavage |
| --- | --- |
| GGCAGAGAUCAACACAGCGUGGCAAAGUGGCUGCAGCAAGACUGCC [C8A U34C G35A U38A] | 0.09 |
| GGCAGAGGUCUACACAGCGUGGCAACGUGGCUGUGGCUAUACUGCC [C8G A11U A26C G40U] | 0.01 |
| GGCAGAGAUCAACACAGCGUCGCAAAGUGGCUUUGGCUAGAUUGCC [C8A G21C G33U C42U] | 0.26 |
| GGCAGAGAUCAACACAGCGUGGCAAAGUGGCUGUGGCUAUUCUGCC [C8A G40U A41U] | 0.12 |
| GGCAGAGAUCAACACAGCGUGGCAAAGUGGCUGCGGCUAGAGUGCU [C8A U34C C42G C46U] | 0.07 |
| GGCAGAGAUCAACACAACGUGGCAAAGUGGCUGUGGCUAGACUGCU [C8A G17A C46U] | 0.13 |
| GGCAGAGGUCGGCACACCGUGGCAAAUUGGCCGUGGCUAGACUGCC [C8G A11G A12G G17C G27U U32C] | 0.01 |
| GGCAGAGAACAACGCAGCGUGGCAAAGUGGCUGUGACUAGACGUCC [C8A U9A A14G G36A U43G G44U] | 0.24 |
| GGCAGAGAUCAACACAGCGUGGCAAAUUGGCUGUUGCUAGACUACC [C8A G27U G35U G44A] | 0.27 |
| GGCAGAGAUCAACACAGCGUUGCAAAGUGGCUGUGGCUAGACUACC [C8A G21U G44A] | 0.41 |
| GGCAGAGAUCAACACAGCGUGGCAAAGUGGCUGUGACUUGACUGCC [C8A G36A A39U] | 0.09 |
| GGCAGAGGUCAGCACAGCGUGGCAAAAUGGCAGUGGCUAGACUCCC [C8G A12G G27A U32A G44C] | 0.02 |
| GGCAGAGAUCAACACAGCGCGGUCAAGUGGCUGUGGCUAGACUGCC [C8A U20C C23U A24C] | 0.06 |
| GGCAGAGAACAACACAGCGUGGCAAAGUGGCUGUGCCUAGACUGCC [C8A U9A G36C] | 0.05 |
| GGCAGAGAGCAACACAGCGUGGCAAAGUGGCUGUGGCUUGACUGCC [C8A U9G A39U] | 0 |
| GGCAGAGAUCAACACAGCCUGGCAAAGUGGCUGUGGCUAGAUUGCC [C8A G19C C42U] | 0.02 |
| GGCAGAGACCAACACCGCGUGGAAAAGUGGCUGUGGCUAGACUGCC [C8A U9C A16C C23A] | 0.29 |
| GGCAGAGAUCAACACAGCGUGGCAAAGGGGCUGUAGCUAGCCUGCC [C8A U28G G35A A41C] | 0.14 |
| GGCAGAGGUCGCCAUAGCGUGGCAAAGUGGCUGUGGCUACACUGCC [C8G A11G A12C C15U G40C] | 0.01 |

| Variant | self-cleavage |
| --- | --- |
| GGCAGAGGUCGACACAGCGUGGCAAAGUGGCUGUGGUUAAACUUCC [C8G A11G C37U G40A G44U] | 0.01 |
| GGCAGAGAUCAACACAGCGCAGCAAAGUGCCAGUGGCUAGACUUCU [C8A U20C G21A G30C U32A G44U C46U] | 0.05 |
| GGCAGAGAUCAACACAGCGUGGGAAAGUGGCUAUGGUUAGACUUCC [C8A C23G G33A C37U G44U] | 0.1 |
| GGCAGAGAUCAACACAGCGGGGCAAAGUGGCUGUGGCUAGUAUGCC [C8A U20G A41U C42A] | 0.08 |
| GGCAGAGAUCAACACAGCGUGGCAAAGUAGCUGUGGCACGACUGCC [C8A G29A U38A A39C] | 0.15 |
| GGCAGAGAUCAACACAGCGUUGCAAAGUAGCUGCGGCUAGACUGCC [C8A G21U G29A U34C] | 0.16 |
| GGCAGAGAUCAACACAGCGUGGCAAAUUGGCUAUGGCUAGACUGCC [C8A G27U G33A] | 0.05 |
| GGCAGAGAUCAACACAUCGUGGCAAAGUGCCUGUGGCCAGAUUGCC [C8A G17U G30C U38C C42U] | 0.05 |
| GGCAGAGAUCAACACAGCGCGGCAAAGUGGCAGUGGCUAGACUGCC [C8A U20C U32A] | 0.03 |
| GGCAGAGAUCAACACAGCGUCGCAAAGUGGAUGGGGCUAUACUGCC [C8A G21C C31A U34G G40U] | 0.03 |
| GGCAGAGAUCAACACAGCGUGGCAAAGCAGCUGUUGCUAGACUGCC [C8A U28C G29A G35U] | 0.14 |
| GGCAGAGAACAACACAGCGUGGCGCAGUGGCCGUAGCUAGAUUGCC [C8A U9A A24G A25C U32C G35A C42U] | 0.06 |
| GGCAGAGAUCAACACAGCGUCGCAAAGUGGCUGUGGCAAGCCUGCC [C8A G21C U38A A41C] | 0.2 |
| GGCAGAGGUCUAAACAGCGUGGCAAAUUGGCUGUGGCUAGUCUGCC [C8G A11U C13A G27U A41U] | 0.02 |
| GGCAGAGGUCAUCACAACGUGGCAAAGUGGCUGUGGCUAGACUGCC [C8G A12U G17A] | 0.03 |
| GGCAGAGAUCAACACAGCGUGGCAAAGUUUCUGUGGCUUGACUGCC [C8A G29U G30U A39U] | 0.19 |
| GGCAGAGAUCAACACAGCGUGGCAAAGUGGCUGUGGUUAGACUGAC [C8A C37U C45A] | 0.17 |
| GGCAGAGAUCAACACAGCGUGGCAAAGUGGCUGUGGUUAGAUUGCC [C8A C37U C42U] | 0.07 |
| GGCAGAGAUCAACACAGCGUGGCAAAGUGGCGGUGGCUGGACUGCC [C8A U32G A39G] | 0.08 |

| Variant | self-cleavage |
| --- | --- |
| GGCAGAGAUCAACACAGCGUGGCAAAUUCGCUGUGGCUAGACUGCC [C8A G27U G29C] | 0.06 |
| GGCAGAGAUCAACACAGUGUGGCAAAGUGGCUGUGGCUAUACUGCC [C8A C18U G40U] | 0.19 |
| GGCAGAGAUCAACACAGCGUGGCAAAAUGGCUGUGGCCAGACUCCC [C8A G27A U38C G44C] | 0.12 |
| GGCAGAGAUCAACACAGCGUGGAAAAGUGGCUGUGGGUAGACUGCC [C8A C23A C37G] | 0.03 |
| GGCAGAGAUCAACACAGUGUGGAAAGCUGGCUCUGGCUAGACUGCC [C8A C18U C23A A26G G27C G33C] | 0.03 |
| GGCAGAGAUCAACACAGCGUGGGAAAGGGGCUGUGGCUAGACUGAC [C8A C23G U28G C45A] | 0.09 |
| GGCAGAGAUCAACACAGCGUGGAAAGGUGGCUGAGGCUAGACUGCC [C8A C23A A26G U34A] | 0.53 |
| GGCAGAGAUCAACACAGCGUGGCAAAGCGGCUGUGCCUAGACUGCC [C8A U28C G36C] | 0.04 |
| GGCAGAGAUCAACACAGCGUGCCAAAGCGGCUGUGGCUAGACUGCC [C8A G22C U28C] | 0.1 |
| GGCAGAGAUCAACACAGCGUGGCAAAGUGGCCGUUGCUAGAAUGCC [C8A U32C G35U C42A] | 0.18 |
| GGCAGAGAUCAACACAGCGUGGCAAAGCGGCUGUGGCUACACGGCC [C8A U28C G40C U43G] | 0.06 |
| GGCAGAGAUCAACACAGCUUGGCUAAGUGGCUUUGGCUAGACUGCC [C8A G19U A24U G33U] | 0.08 |
| GGCAGAGACCAACACAGCGUGGGAAAGUGGCUGUCGCUAGGCUGCC [C8A U9C C23G G35C A41G] | 0.01 |
| GGCAGAGAUCAACACAGGGUGACAAAAUGGCUGUGGAUAGACUGCG [C8A C18G G22A G27A C37A C46G] | 0.06 |
| GGCAGAGAUCAACACAGCGUGGCAAAGUGACUGUGGCUAGACUUCC [C8A G30A G44U] | 0.16 |
| GGCAGAGAUCAACACAGCGCGGCAAAGUGGCUUUGGCUAGAAUGCC [C8A U20C G33U C42A] | 0.11 |
| GGCAGAGAUCAACACAUCCUGGCAAAGUGGCAGUGGCUAGACUGCA [C8A G17U G19C U32A C46A] | 0.09 |
| GGCAGAGAUCAACACAGUGUGGGAAAGUGGCUGUGGCUAGAAUGAC [C8A C18U C23G C42A C45A] | 0.56 |
